Source: PubChem BioAssay AID588795 (National Center for Advancing Translational Sciences (NCATS), 2011)
Screen size: about 390,000 compounds; about 1,400 (0.36%) were called active. The inconclusive results got no clear call from the source; some entries with a clear call stand among them for comparison. Calls come from the whole dose curve; as a rule, active = well fitted inhibition curve with a large enough effect; inconclusive = small, poorly fitted or top-dose-only effect; inactive = no such curve, though single readings can be large or run the other way. Potencies beside an inconclusive call are fits to weak or partial responses and may not hold up.

The compounds below were run against Flap endonuclease 1 (Homo sapiens) (UniProt P39748) (assay: qHTS Assay for the Inhibitors of Human Flap endonuclease 1 (FEN1).). Conditions: Recombinant FEN1 flap cleavage, fluorescence, 15 min; series mostly up to 114 µM; activity change, negative = inhibition: at the top concentration.
Sequence of UniProt P39748 (P39748 whole entry, looked up): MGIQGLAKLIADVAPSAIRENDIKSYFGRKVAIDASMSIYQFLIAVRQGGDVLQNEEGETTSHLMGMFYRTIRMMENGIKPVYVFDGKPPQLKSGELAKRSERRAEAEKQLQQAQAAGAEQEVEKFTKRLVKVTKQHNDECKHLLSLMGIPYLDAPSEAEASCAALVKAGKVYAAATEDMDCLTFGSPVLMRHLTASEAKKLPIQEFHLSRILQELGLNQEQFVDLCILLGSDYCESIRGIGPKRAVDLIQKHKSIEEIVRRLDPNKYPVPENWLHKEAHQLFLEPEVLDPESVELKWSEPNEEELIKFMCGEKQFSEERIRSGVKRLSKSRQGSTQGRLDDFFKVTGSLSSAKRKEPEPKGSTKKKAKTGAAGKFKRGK
In short: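 Recombinant FEN1 (10 nM) was preincubated with pin-transferred compounds for 15 min at room temperature, then flap DNA substrate (50 nM final) was added. Plates were read at 0 and 15 min, and normalized concentration–response data were fitted to a four-parameter Hill equation.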
% is set by controls: 0 for no effect and ±100 for the full control effect; potency is the fitted concentration of half-maximal effect; tags give direction and shape of the fitted curve.
Note: nearly all actives have a fitted effect of over 65% in size.

| Structure (SMILES) | Potency | activity change, negative = inhibition |
| --- | --- | --- |
| CCN(CC)CCCNC(=O)c1cc2c(=O)n(C)c3ccccc3c2n1C | inconclusive: 35.5 µM [inhibitor, partial curve] | – |
| Cc1cc2c(NC(=O)Nc3ccc(C(C)(C)C)cc3)cccc2nn1 | inconclusive: 10 µM [inhibitor, partial curve, poor fit] | – |
| Cc1ccc(N(C(=O)Cn2nnc3ccccc32)C(C(=O)NCc2ccco2)c2cccnc2)cc1 (stereo unspecified) | – | inactive: -0.153% |
| Fc1ccc2[nH]c3c(NCc4ccco4)ncnc3c2c1 | inconclusive: 56.2 µM [inhibitor, partial curve, poor fit] | – |
| CCCCSc1nc(NCc2ccco2)c2c3c(sc2n1)COC(C)(C)C3 | inconclusive: 56.2 µM [inhibitor, partial curve, poor fit] | – |
| CCC(NC(=O)Cc1c(C)c2c(cc(C)c3c(C)c(C)oc32)oc1=O)C(=O)O (stereo unspecified) | inconclusive: 20 µM [inhibitor, partial curve, poor fit] | – |
| Cc1cc(=O)oc2c1c(C)nn2-c1nn[nH]n1 | – | inactive: -3.97% |
| COc1ccc2cc(C(=O)N/N=C/c3cc(OC)c(OC)c(OC)c3)[nH]c2c1 | inconclusive: 35.5 µM [inhibitor, partial curve] | – |
| CCOC(=O)C1=C(c2ccccc2)N=c2s/c(=C\c3cccc(O)c3)c(=O)n2C1c1cccs1 (stereo unspecified) | inconclusive: 31.6 µM [inhibitor, partial curve, poor fit] | – |
| Cc1nn(-c2ccccc2)c(C)c1/C=N/Nc1nc2ccccc2[nH]1 | inconclusive: 89.1 µM [inhibitor, partial curve, poor fit] | – |
| O=C(O)CCCN1C(=O)/C(=C\c2ccccc2OCc2ccccc2)SC1=S | inconclusive: 56.2 µM [inhibitor, partial curve, poor fit] | – |
| CCCCCCC(=O)O | – | inactive: 0.592% |
| Cc1ccc(NC(=O)CSc2nc(-c3ccc(F)cc3)nc3c2Cc2c(CO)cnc(C)c2O3)cc1C | – | inactive: 17.7% |
| O=C(COc1ccc(Cl)cc1)Nc1sc2c(c1C(=O)Nc1cccc(Cl)c1)CCCC2 | inconclusive: 89.1 µM [inhibitor, single point] | – |
| C=CCn1c(SCC(=O)N2CCOCC2)nc2scc(-c3ccco3)c2c1=O | inconclusive: 50.1 µM [inhibitor, partial curve] | – |
| Cc1ccc2c(C)nc(Nc3nc(CSc4nnc(C)s4)cc(=O)[nH]3)nc2c1 | inconclusive: 89.1 µM [inhibitor, single point] | – |
| O=C1c2cccc3c(N4CCCCC4)ccc(c23)C(=O)N1c1cccc(O)c1 | inconclusive: 39.8 µM [inhibitor, partial curve, poor fit] | – |
| Cc1ccc(C(=O)c2coc3cc([N+](=O)[O-])c(O)c([N+](=O)[O-])c23)cc1 | inconclusive: 56.2 µM [inhibitor, partial curve, poor fit] | – |
| COc1ccccc1NC(=O)CN1CCN(c2ccc(F)cc2)CC1 | – | inactive: 9.42% |
| CC(=O)C(=Nc1ccc(Cl)cc1Cl)NNc1cccc(Cl)c1 | inconclusive: 89.1 µM [inhibitor, partial curve, poor fit] | – |
| Brc1cccc[n+]1CCC[n+]1ccccc1Br | active: 79.4 µM | – |

| Structure (SMILES) | Potency | activity change, negative = inhibition |
| --- | --- | --- |
| CCOC(=O)C1=C(C)N=c2s/c(=C/c3ccc(OCC(=O)O)cc3)c(=O)n2C1c1ccc(F)cc1 (stereo unspecified) | inconclusive: 89.1 µM [inhibitor, single point] | – |
| COc1ccc(N2CCN(C(=O)CCc3c(C)nc4c(-c5ccccc5)c(C)nn4c3C)CC2)cc1 | – | inactive: 11.6% |
| N#C/C(=C/c1ccc(-c2cccc([N+](=O)[O-])c2)o1)C(=O)Nc1nc(-c2cccs2)cs1 | – | inactive: 7.41% |
| CCOC(=O)c1c(C)[nH]c(C)c1C(=O)Cn1nnc(-c2ccccc2C)n1 | inconclusive: 79.4 µM [inhibitor, partial curve, poor fit] | – |
| CC1=C(C(N)=O)C(c2ccc(C(C)C)cc2)n2nc(SCc3ccccc3)nc2N1 (stereo unspecified) | – | inactive: 10.9% |
| COc1cc(/C=C2/CC/C(=C/c3ccc(O)c(OC)c3)C2=O)ccc1O | inconclusive: 44.7 µM [inhibitor, partial curve] | – |
| CC(=O)c1sc2nc(-c3ccco3)ccc2c1N | inconclusive: 50.1 µM [inhibitor, partial curve, poor fit] | – |
| COc1ccc(OCC(=O)Nc2cccc3cccnc23)cc1 | inconclusive: 70.8 µM [inhibitor, partial curve, poor fit] | – |
| CCOC(=O)c1cc(-c2ccccc2C)n(CC2CC(c3ccc(OC)cc3)=NO2)n1 (stereo unspecified) | inconclusive: 89.1 µM [inhibitor, single point] | – |
| O=C(Nc1cccc(C(=O)Nc2ccc(S(=O)(=O)O)c3cc(S(=O)(=O)O)cc(S(=O)(=O)O)c23)c1)Nc1cccc(C(=O)Nc2ccc(S(=O)(=O)O)c3cc(S(=O)(=O)O)cc(S(=O)(=O)O)c23)c1 | active: 1 µM | – |
| O=C(Nc1ccccc1)c1ccc2c(O)c(S(=O)(=O)c3ccc(Cl)cc3)c(=O)[nH]c2c1 | inconclusive: 89.1 µM [inhibitor, single point] | – |
| CCN(C(=O)COc1cccc2cccnc12)C1CCS(=O)(=O)C1 (stereo unspecified) | inconclusive: 25.1 µM [inhibitor, single point] | – |
| O=C1C=C(O)C(n2cncn2)C(c2ccc3c(c2)OCO3)C1 (stereo unspecified) | – | inactive: -2.33% |
| CC(C)(C)c1cc(-c2csc(Nc3ccccc3)[n+]2Cc2ccc(C(=O)O)cc2)cc(C(C)(C)C)c1O | inconclusive: 79.4 µM [inhibitor, single point] | – |
| COc1ccc(C(=O)N2CCOC2CNC(=O)C(=O)NCc2ccccc2Cl)cc1 (stereo unspecified) | – | inactive: -0.878% |
| CCCCSCCCNC(=O)c1c[nH]c2ccc(S(=O)(=O)Nc3cccc(OC)c3)cc2c1=O | – | inactive: 13.4% |
| CCN(c1ccccc1)S(=O)(=O)c1ccc(Oc2ccccc2)c(N)c1 | inconclusive: 79.4 µM [inhibitor, partial curve, poor fit] | – |
| O=C(CSc1ncccn1)n1c2c(c3ccccc31)CCCC2 | inconclusive: 89.1 µM [inhibitor, partial curve, poor fit] | – |
| Cc1ccc(CNc2ncnc3onc(C)c23)cc1 | – | inactive: 4.21% |
| Cc1ccc(C2=NOC(C)(c3sc(-c4ccc(Cl)cc4)nc3C)C2)cc1 (stereo unspecified) | inconclusive: 89.1 µM [inhibitor, partial curve, poor fit] | – |
